# Measurements published in PubChem BioAssay AID651820 (National Center for Advancing Translational Sciences (NCATS), 2012).
# Hit rate of the full screen: of about 340,000 compounds, about 12,000 (3.5%) were called active. Inconclusive means that the source gave no clear call. Such entries were picked first, then a sample of the others. The call rests on the fitted dose curve; in most records, active means well fitted inhibition curve with a large enough effect; inconclusive means small, poorly fitted or top-dose-only effect, or another doubt; inactive means no such curve, though single readings can be large or run the other way. Potencies of inconclusive entries are left out as doubtful fits.
# Assay: qHTS Assay for Inhibitors of Hepatitis C Virus (HCV)
# Conditions: Huh7.5.1 HCVcc-Cre (HCVcc is cell-culture hepatitis C virus) infection, luciferase reporter, 44 h; activity change, negative = inhibition: at 41.8 µM (top of the series) unless noted
# Outline: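 Seed cells (1,000/well) for 4 h; treat with compound and infect with HCVcc-Cre, moi about 0.5. Incubate 44 h, then detect luciferase activity.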
# On the % scale 0 is the no-effect control and ±100 the full control effect; potency means the concentration at half of the fitted maximal effect; tags describe the fitted curve by direction and shape.
SMILES,Potency,"activity change, negative = inhibition"
CCN(CC)c1ccc(/C=N/OC(C)C(=O)Nc2ccc(C)cc2)cc1 (configuration not stated),"inconclusive [inhibitor, single point]",–
Cc1cccc(N2CCN(c3ccc4cc(S(=O)(=O)N5CCCCC5)ccc4n3)CC2C)c1 (configuration not stated),"inconclusive [inhibitor, full curve]",–
CCCCn1c(N)c(N(CC(C)C)C(=O)C2CCN(C(=O)c3ccc(F)cc3)CC2)c(=O)[nH]c1=O,–,inactive: 10.3%
CCC(C)Nc1nc(OCC(F)(F)F)nc(OCC(F)(F)F)n1 (configuration not stated),"inconclusive [inhibitor, single point]",–
Cc1cc(N2CCC(C)CC2)nc2ccc(N3C(=O)CCC3=O)cc12,"inconclusive [inhibitor, single point]",–
CC(C)C(=O)Nc1ccc(NC(=S)NC(=O)c2ccccc2F)cc1,"inconclusive [inhibitor, partial curve, poor fit]",–
CCOc1ccc(Oc2ccc(S(=O)(=O)N3CCOCC3)cc2N)cc1,"inconclusive [inhibitor, single point]",–
CN(CC(=O)Nc1cccc(F)c1)C(=O)COc1ccc2c(c1)CCC2,"inconclusive [inhibitor, partial curve]",–
O=C(NC(=S)Nc1cc([N+](=O)[O-])ccc1Cl)c1ccccc1,"inconclusive [inhibitor, partial curve]",–
CCCCn1c(N)c(N(CCOC)C(=O)C2CCCN(C(=O)c3ccc(Cl)cc3)C2)c(=O)[nH]c1=O (configuration not stated),–,inactive: 4%
CCCC(=O)Nc1ccc2c(c1)c1ccccc1n2CC,"inconclusive [inhibitor, partial curve]",–
Cc1ccc(-c2cc(-c3ccccc3Cl)[nH]n2)c(O)c1,"inconclusive [inhibitor, single point]",–
Cc1nn(-c2ccccc2)c2c1C(c1ccc(Cl)cc1)N(c1ccccc1)C(=O)N2 (configuration not stated),"inconclusive [inhibitor, partial curve]",–
COc1ccc([N+](=O)[O-])cc1NC(=O)COC(=O)c1ccccc1O,"inconclusive [inhibitor, single point]",–
C=CCn1c(Cc2cccs2)nnc1SCC(=O)Nc1ccc(C(=O)OCC)cc1,"inconclusive [inhibitor, partial curve]",–
NC(=O)c1oc2ccccc2c1NC(=O)c1ccccc1,"inconclusive [inhibitor, single point]",–
CCN(CC)S(=O)(=O)c1cccc(NC(=S)NC(=O)/C=C/c2ccc(S(=O)(=O)N3CCOCC3)cc2)c1,–,inactive: -5.08%
